{"source": "the supplement of paper PMC8728848", "binders": {"B1": {"name": "DBA (Dolichos biflorus) (protein)", "chain": "ANIQSFSFKNFNSPSFILQGDATVSSGKLQLTKVKENGFPLRFPSGRAFYSSPIQIYDKFTGAVASWATSFTVKISAPSKASFADGIAFALVPVGSEPRRNGGYLGVFDSDVYNNSAQTVAVEFDTLSNSGWDPSMKHIGIDVNSIKSIATVSWDLANGENAEILITYNAATSLLVVSLVHPSRRTSYILSERVDITNELPEYVGVGFSATTGLSEGYIETHDVLSWSFASRLPDDSTAEPLDLARYLVRNVL"}}, "assay_in_all_cases": "glycan array binding signal (z-score within array); higher = stronger binding", "conditions_in_all_cases": "glycan notation: IUPAC condensed, linker removed", "key": {"[1]": {"target": "Gal(b1-4)GlcNAc(b1-6)[Gal(b1-3)]GalNAc", "summary_of_the_method": "(§1)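 From the Consortium for Functional Glycomics database, 3228 arrays were curated, keeping only those whose protein sequence was available. Binding is given as a within-array Z-score averaged across arrays sharing a protein sequence and across linkers. Negative Z-scores can be read as non-binding.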"}, "[2]": {"target": "Gal(b1-4)GlcNAc(b1-6)[Gal(b1-4)GlcNAc(b1-3)]GalNAc", "summary_of_the_method": "as §1"}, "Gal(b1-4)GlcNAc6P": {"target": "Gal(b1-4)GlcNAc6P", "summary_of_the_method": "as §1"}, "Gal(b1-6)Gal": {"target": "Gal(b1-6)Gal", "summary_of_the_method": "as §1"}, "Gal3S(b1-3)GalNAc": {"target": "Gal3S(b1-3)GalNAc", "summary_of_the_method": "as §1"}, "Gal3S(b1-3)GlcNAc": {"target": "Gal3S(b1-3)GlcNAc", "summary_of_the_method": "as §1"}, "[3]": {"target": "Gal3S(b1-3)[Fuc(a1-4)]GlcNAc", "summary_of_the_method": "as §1"}, "Gal3S(b1-4)Glc": {"target": "Gal3S(b1-4)Glc", "summary_of_the_method": "as §1"}, "Gal3S(b1-4)Glc6S": {"target": "Gal3S(b1-4)Glc6S", "summary_of_the_method": "as §1"}, "Gal3S(b1-4)GlcNAc": {"target": "Gal3S(b1-4)GlcNAc", "summary_of_the_method": "as §1"}, "Gal3S(b1-4)GlcNAc6S": {"target": "Gal3S(b1-4)GlcNAc6S", "summary_of_the_method": "as §1"}, "[4]": {"target": "Gal3S(b1-4)[Fuc(a1-3)]Glc6S", "summary_of_the_method": "as §1"}, "[5]": {"target": "Gal3S(b1-4)[Fuc(a1-3)]GlcNAc", "summary_of_the_method": "as §1"}, "[6]": {"target": "Gal3S(b1-4)[Fuc(a1-3)]GlcNAc6S", "summary_of_the_method": "as §1"}, "Gal3S4S(b1-4)GlcNAc": {"target": "Gal3S4S(b1-4)GlcNAc", "summary_of_the_method": "as §1"}, "Gal3S6S(b1-4)GlcNAc": {"target": "Gal3S6S(b1-4)GlcNAc", "summary_of_the_method": "as §1"}, "Gal3S6S(b1-4)GlcNAc6S": {"target": "Gal3S6S(b1-4)GlcNAc6S", "summary_of_the_method": "as §1"}, "Gal4S(b1-4)GlcNAc": {"target": "Gal4S(b1-4)GlcNAc", "summary_of_the_method": "as §1"}, "Gal4S6S(b1-4)GlcNAc": {"target": "Gal4S6S(b1-4)GlcNAc", "summary_of_the_method": "as §1"}, "Gal6P(b1-4)GlcNAc": {"target": "Gal6P(b1-4)GlcNAc", "summary_of_the_method": "as §1"}, "Gal6S(b1-3)GlcNAc": {"target": "Gal6S(b1-3)GlcNAc", "summary_of_the_method": "as §1"}, "Gal6S(b1-3)GlcNAc6S": {"target": "Gal6S(b1-3)GlcNAc6S", "summary_of_the_method": "as §1"}, "Gal6S(b1-4)Glc": {"target": "Gal6S(b1-4)Glc", "summary_of_the_method": "as §1"}, "Gal6S(b1-4)Glc6S": {"target": "Gal6S(b1-4)Glc6S", "summary_of_the_method": "as §1"}, "Gal6S(b1-4)GlcNAc": {"target": "Gal6S(b1-4)GlcNAc", "summary_of_the_method": "as §1"}, "Gal6S(b1-4)GlcNAc6S": {"target": "Gal6S(b1-4)GlcNAc6S", "summary_of_the_method": "as §1"}, "GalNAc(a1-3)Gal": {"target": "GalNAc(a1-3)Gal", "summary_of_the_method": "as §1"}, "GalNAc(a1-3)GalNAc": {"target": "GalNAc(a1-3)GalNAc", "summary_of_the_method": "as §1"}, "[7]": {"target": "GalNAc(a1-3)GalNAc(a1-3)Gal(a1-4)Gal(b1-4)GlcNAc", "summary_of_the_method": "as §1"}, "[8]": {"target": "GalNAc(a1-3)GalNAc(b1-3)Gal(a1-4)Gal(b1-4)Glc", "summary_of_the_method": "as §1"}, "GalNAc(b1-3)Gal": {"target": "GalNAc(b1-3)Gal", "summary_of_the_method": "as §1"}, "[9]": {"target": "GalNAc(b1-3)Gal(a1-4)Gal(b1-4)GlcNAc", "summary_of_the_method": "as §1"}, "[10]": {"target": "GalNAc(b1-3)Gal(a1-4)Gal(b1-4)GlcNAc(b1-3)Gal(b1-4)Glc", "summary_of_the_method": "as §1"}, "[11]": {"target": "GalNAc(b1-3)Gal(a1-6)Gal(b1-4)Glc", "summary_of_the_method": "as §1"}, "GalNAc(b1-3)GalNAc": {"target": "GalNAc(b1-3)GalNAc", "summary_of_the_method": "as §1"}, "GalNAc(b1-3)GlcNAc": {"target": "GalNAc(b1-3)GlcNAc", "summary_of_the_method": "as §1"}, "GalNAc(b1-4)Gal(b1-4)Glc": {"target": "GalNAc(b1-4)Gal(b1-4)Glc", "summary_of_the_method": "as §1"}, "GalNAc(b1-4)GlcNAc": {"target": "GalNAc(b1-4)GlcNAc", "summary_of_the_method": "as §1"}, "[12]": {"target": "GalNAc(b1-4)GlcNAc(b1-2)Man", "summary_of_the_method": "as §1"}, "[13]": {"target": "GalNAc(b1-4)GlcNAc(b1-2)Man(a1-3)[GalNAc(b1-4)GlcNAc(b1-2)Man(a1-6)]Man(b1-4)GlcNAc(b1-4)GlcNAc", "summary_of_the_method": "as §1"}, "[14]": {"target": "GalNAc(b1-4)GlcNAc(b1-3)GalNAc(b1-4)GlcNAc", "summary_of_the_method": "as §1"}, "GalNAc(b1-4)GlcNAc6S": {"target": "GalNAc(b1-4)GlcNAc6S", "summary_of_the_method": "as §1"}, "GalNAc(b1-6)GalNAc": {"target": "GalNAc(b1-6)GalNAc", "summary_of_the_method": "as §1"}, "GalNAc3S(b1-4)GlcNAc": {"target": "GalNAc3S(b1-4)GlcNAc", "summary_of_the_method": "as §1"}, "GalNAc3S(b1-4)GlcNAc3S": {"target": "GalNAc3S(b1-4)GlcNAc3S", "summary_of_the_method": "as §1"}}, "note": "Some of the results follow."}
{"binder": "B1", "values": [{"measurement": "glycan array binding signal (z-score)", "setting": "[1]", "result": -0.121}, {"measurement": "glycan array binding signal (z-score)", "setting": "[2]", "result": -0.113}, {"measurement": "glycan array binding signal (z-score)", "setting": "Gal(b1-4)GlcNAc6P", "result": -0.091}, {"measurement": "glycan array binding signal (z-score)", "setting": "Gal(b1-6)Gal", "result": -0.041}, {"measurement": "glycan array binding signal (z-score)", "setting": "Gal3S(b1-3)GalNAc", "result": -0.153}, {"measurement": "glycan array binding signal (z-score)", "setting": "Gal3S(b1-3)GlcNAc", "result": -0.136}, {"measurement": "glycan array binding signal (z-score)", "setting": "[3]", "result": -0.095}, {"measurement": "glycan array binding signal (z-score)", "setting": "Gal3S(b1-4)Glc", "result": -0.125}, {"measurement": "glycan array binding signal (z-score)", "setting": "Gal3S(b1-4)Glc6S", "result": -0.123}, {"measurement": "glycan array binding signal (z-score)", "setting": "Gal3S(b1-4)GlcNAc", "result": -0.127}, {"measurement": "glycan array binding signal (z-score)", "setting": "Gal3S(b1-4)GlcNAc6S", "result": -0.187}, {"measurement": "glycan array binding signal (z-score)", "setting": "[4]", "result": 0.118}, {"measurement": "glycan array binding signal (z-score)", "setting": "[5]", "result": -0.12}, {"measurement": "glycan array binding signal (z-score)", "setting": "[6]", "result": -0.121}, {"measurement": "glycan array binding signal (z-score)", "setting": "Gal3S4S(b1-4)GlcNAc", "result": -0.124}, {"measurement": "glycan array binding signal (z-score)", "setting": "Gal3S6S(b1-4)GlcNAc", "result": -0.127}, {"measurement": "glycan array binding signal (z-score)", "setting": "Gal3S6S(b1-4)GlcNAc6S", "result": -0.164}, {"measurement": "glycan array binding signal (z-score)", "setting": "Gal4S(b1-4)GlcNAc", "result": -0.164}, {"measurement": "glycan array binding signal (z-score)", "setting": "Gal4S6S(b1-4)GlcNAc", "result": -0.128}, {"measurement": "glycan array binding signal (z-score)", "setting": "Gal6P(b1-4)GlcNAc", "result": -0.185}, {"measurement": "glycan array binding signal (z-score)", "setting": "Gal6S(b1-3)GlcNAc", "result": -0.199}, {"measurement": "glycan array binding signal (z-score)", "setting": "Gal6S(b1-3)GlcNAc6S", "result": -0.14}, {"measurement": "glycan array binding signal (z-score)", "setting": "Gal6S(b1-4)Glc", "result": -0.125}, {"measurement": "glycan array binding signal (z-score)", "setting": "Gal6S(b1-4)Glc6S", "result": -0.126}, {"measurement": "glycan array binding signal (z-score)", "setting": "Gal6S(b1-4)GlcNAc", "result": -0.161}, {"measurement": "glycan array binding signal (z-score)", "setting": "Gal6S(b1-4)GlcNAc6S", "result": -0.181}, {"measurement": "glycan array binding signal (z-score)", "setting": "GalNAc(a1-3)Gal", "result": -0.052}, {"measurement": "glycan array binding signal (z-score)", "setting": "GalNAc(a1-3)GalNAc", "result": 12.1}, {"measurement": "glycan array binding signal (z-score)", "setting": "[7]", "result": 12.5}, {"measurement": "glycan array binding signal (z-score)", "setting": "[8]", "result": 13.4}, {"measurement": "glycan array binding signal (z-score)", "setting": "GalNAc(b1-3)Gal", "result": -0.122}, {"measurement": "glycan array binding signal (z-score)", "setting": "[9]", "result": -0.135}, {"measurement": "glycan array binding signal (z-score)", "setting": "[10]", "result": -0.121}, {"measurement": "glycan array binding signal (z-score)", "setting": "[11]", "result": -0.087}, {"measurement": "glycan array binding signal (z-score)", "setting": "GalNAc(b1-3)GalNAc", "result": -0.048}, {"measurement": "glycan array binding signal (z-score)", "setting": "GalNAc(b1-3)GlcNAc", "result": -0.113}, {"measurement": "glycan array binding signal (z-score)", "setting": "GalNAc(b1-4)Gal(b1-4)Glc", "result": -0.087}, {"measurement": "glycan array binding signal (z-score)", "setting": "GalNAc(b1-4)GlcNAc", "result": 0.131}, {"measurement": "glycan array binding signal (z-score)", "setting": "[12]", "result": -0.093}, {"measurement": "glycan array binding signal (z-score)", "setting": "[13]", "result": 0.145}, {"measurement": "glycan array binding signal (z-score)", "setting": "[14]", "result": 0.07}, {"measurement": "glycan array binding signal (z-score)", "setting": "GalNAc(b1-4)GlcNAc6S", "result": 1.8}, {"measurement": "glycan array binding signal (z-score)", "setting": "GalNAc(b1-6)GalNAc", "result": -0.132}, {"measurement": "glycan array binding signal (z-score)", "setting": "GalNAc3S(b1-4)GlcNAc", "result": -0.122}, {"measurement": "glycan array binding signal (z-score)", "setting": "GalNAc3S(b1-4)GlcNAc3S", "result": -0.174}]}
